Experimental data from the supplement of paper PMC8728848.
Some of the results follow.

Columns and labels:
Assay in all cases: glycan array binding signal (z-score within array); higher = stronger binding
Settings in all cases: glycan notation: IUPAC condensed, linker removed
[1] = target: Fuc(a1-2)[Gal(a1-3)]Gal(b1-4)GlcNAc(b1-2)Man(a1-3)[Fuc(a1-2)[Gal(a1-3)]Gal(b1-4)GlcNAc(b1-2)Man(a1-6)]Man(b1-4)GlcNAc(b1-4)GlcNAc
In short: (§1)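 Columns mapping to the same glycan were averaged after glycan names were converted to IUPAC-condensed notation. The data come from 3228 arrays in the Consortium for Functional Glycomics database, limited to those with an available protein sequence. Binding is reported as a within-array Z-score averaged across arrays of one protein sequence and across linkers.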

[2] = target: Fuc(a1-2)[Gal(a1-3)]Gal(b1-4)GlcNAc(b1-2)Man(a1-3)[Fuc(a1-2)[Gal(a1-3)]Gal(b1-4)GlcNAc(b1-2)Man(a1-6)]Man(b1-4)GlcNAc(b1-4)[Fuc(a1-6)]GlcNAc
In short: as §1

[3] = target: Fuc(a1-2)[Gal(a1-3)]Gal(b1-4)GlcNAc(b1-3)GalNAc
In short: as §1

[4] = target: Fuc(a1-2)[Gal(a1-3)]Gal(b1-4)GlcNAc(b1-3)[Fuc(a1-2)[Gal(a1-3)]Gal(b1-4)GlcNAc(b1-6)]GalNAc
In short: as §1

[5] = target: Fuc(a1-2)[Gal(a1-3)]Gal(b1-4)GlcNAc(b1-6)GalNAc
In short: as §1

[6] = target: Fuc(a1-2)[Gal(a1-3)]Gal(b1-4)[Fuc(a1-3)]Glc
In short: as §1

[7] = target: Fuc(a1-2)[Gal(a1-3)]Gal(b1-4)[Fuc(a1-3)]GlcNAc
In short: as §1

[8] = target: Fuc(a1-2)[Gal(a1-3)]Gal(b1-4)[Fuc(a1-3)]GlcNAc(b1-3)GalNAc
In short: as §1

[9] = target: Fuc(a1-2)[Gal(a1-4)]Gal(b1-4)GlcNAc
In short: as §1

[10] = target: Fuc(a1-2)[GalNAc(a1-3)]Gal
In short: as §1

[11] = target: Fuc(a1-2)[GalNAc(a1-3)]Gal(b1-3)GalNAc(a1-3)[Fuc(a1-2)]Gal(b1-4)GlcNAc
In short: as §1

[12] = target: Fuc(a1-2)[GalNAc(a1-3)]Gal(b1-3)GalNAc(b1-3)Gal(a1-4)Gal(b1-4)Glc
In short: as §1

[13] = target: Fuc(a1-2)[GalNAc(a1-3)]Gal(b1-3)GlcNAc
In short: as §1

[14] = target: Fuc(a1-2)[GalNAc(a1-3)]Gal(b1-3)GlcNAc(b1-2)Man(a1-3)[Fuc(a1-2)[GalNAc(a1-3)]Gal(b1-3)GlcNAc(b1-2)Man(a1-6)]Man(b1-4)GlcNAc(b1-4)GlcNAc
In short: as §1

[15] = target: Fuc(a1-2)[GalNAc(a1-3)]Gal(b1-3)GlcNAc(b1-2)Man(a1-3)[Fuc(a1-2)[GalNAc(a1-3)]Gal(b1-3)GlcNAc(b1-2)Man(a1-6)]Man(b1-4)GlcNAc(b1-4)[Fuc(a1-6)]GlcNAc
In short: as §1

[16] = target: Fuc(a1-2)[GalNAc(a1-3)]Gal(b1-3)GlcNAc(b1-3)GalNAc
In short: as §1

[17] = target: Fuc(a1-2)[GalNAc(a1-3)]Gal(b1-3)GlcNAc(b1-6)GalNAc
In short: as §1

[18] = target: Fuc(a1-2)[GalNAc(a1-3)]Gal(b1-4)Glc
In short: as §1

[19] = target: Fuc(a1-2)[GalNAc(a1-3)]Gal(b1-4)GlcNAc
In short: as §1

[20] = target: Fuc(a1-2)[GalNAc(a1-3)]Gal(b1-4)GlcNAc(b1-2)Man
In short: as §1

[21] = target: Fuc(a1-2)[GalNAc(a1-3)]Gal(b1-4)GlcNAc(b1-2)Man(a1-3)[Fuc(a1-2)[GalNAc(a1-3)]Gal(b1-4)GlcNAc(b1-2)Man(a1-6)]Man(b1-4)GlcNAc(b1-4)GlcNAc
In short: as §1

[22] = target: Fuc(a1-2)[GalNAc(a1-3)]Gal(b1-4)GlcNAc(b1-2)Man(a1-3)[Fuc(a1-2)[GalNAc(a1-3)]Gal(b1-4)GlcNAc(b1-2)Man(a1-6)]Man(b1-4)GlcNAc(b1-4)[Fuc(a1-6)]GlcNAc
In short: as §1

[23] = target: Fuc(a1-2)[GalNAc(a1-3)]Gal(b1-4)GlcNAc(b1-3)Gal(b1-4)GlcNAc
In short: as §1

[24] = target: Fuc(a1-2)[GalNAc(a1-3)]Gal(b1-4)GlcNAc(b1-3)Gal(b1-4)GlcNAc(b1-3)Gal(b1-4)GlcNAc
In short: as §1

[25] = target: Fuc(a1-2)[GalNAc(a1-3)]Gal(b1-4)GlcNAc(b1-3)GalNAc
In short: as §1

[26] = target: Fuc(a1-2)[GalNAc(a1-3)]Gal(b1-4)GlcNAc(b1-3)[Fuc(a1-2)[GalNAc(a1-3)]Gal(b1-4)GlcNAc(b1-6)]GalNAc
In short: as §1

[27] = target: Fuc(a1-2)[GalNAc(a1-3)]Gal(b1-4)GlcNAc(b1-6)GalNAc
In short: as §1

[28] = target: Fuc(a1-2)[GalNAc(a1-3)]Gal(b1-4)[Fuc(a1-3)]GlcNAc
In short: as §1

[29] = target: Fuc(a1-2)[GalNAc(a1-3)]Gal(b1-4)[Fuc(a1-3)]GlcNAc(b1-3)GalNAc
In short: as §1

[30] = target: Fuc(a1-2)[GalNAc(a1-4)]Gal(b1-4)GlcNAc
In short: as §1

[31] = target: Fuc(a1-2)[GalNAc(b1-3)]Gal
In short: as §1

Fuc(a1-3)GlcNAc = target: Fuc(a1-3)GlcNAc
In short: as §1

[32] = target: Fuc(a1-3)[Gal(b1-4)]Glc6S
In short: as §1

[33] = target: Fuc(a1-3)[Gal(b1-4)]GlcNAc
In short: as §1

[34] = target: Fuc(a1-3)[Gal(b1-4)]GlcNAc(b1-2)Man
In short: as §1

[35] = target: Fuc(a1-3)[Gal(b1-4)]GlcNAc(b1-2)Man(a1-3)[Fuc(a1-3)[Gal(b1-4)]GlcNAc(b1-2)Man(a1-6)]Man(b1-4)GlcNAc(b1-4)GlcNAc
In short: as §1

[36] = target: Fuc(a1-3)[Gal(b1-4)]GlcNAc(b1-2)Man(a1-3)[Fuc(a1-3)[Gal(b1-4)]GlcNAc(b1-2)Man(a1-6)]Man(b1-4)GlcNAc(b1-4)[Fuc(a1-6)]GlcNAc
In short: as §1

[37] = target: Fuc(a1-3)[Gal(b1-4)]GlcNAc(b1-3)Gal(b1-3)[Fuc(a1-4)]GlcNAc
In short: as §1

[38] = target: Fuc(a1-3)[Gal(b1-4)]GlcNAc(b1-3)Gal(b1-4)[Fuc(a1-3)]GlcNAc
In short: as §1

[39] = target: Fuc(a1-3)[Gal(b1-4)]GlcNAc(b1-3)Gal(b1-4)[Fuc(a1-3)]GlcNAc(b1-3)Gal(b1-4)[Fuc(a1-3)]GlcNAc
In short: as §1

[40] = target: Fuc(a1-3)[Gal(b1-4)]GlcNAc(b1-3)GalNAc
In short: as §1

[41] = target: Fuc(a1-3)[Gal(b1-4)]GlcNAc(b1-6)GalNAc
In short: as §1

[42] = target: Fuc(a1-3)[Gal(b1-4)]GlcNAc(b1-6)[Gal(b1-3)GlcNAc(b1-3)]Gal(b1-4)Glc
In short: as §1

[43] = target: Fuc(a1-3)[Gal(b1-4)]GlcNAc6S
In short: as §1

[44] = target: Fuc(a1-3)[Gal3S(b1-4)]Glc
In short: as §1

B1: Dectin2 (Homo sapiens), Q6EIG7 (protein)
chain: MMQEQQPQSTEKRGWLSLRLWSVAGISIALLSACFIVSCVVTYHFTYGETGKRLSELHSYHSSLTCFSEGTKVPAWGCCPASWKSFGSSCYFISSEEKVWSKSEQNCVEMGAHLVVFNTEAEQNFIVQQLNESFSYFLGLSDPQGNNNWQWIDKTPYEKNVRFWHLGEPNHSAEQCASIVFWKPTGWGWNDVICETRRNSICEMNKIYL
[1]
  glycan array binding signal (z-score): -0.099
[2]
  glycan array binding signal (z-score): 0.036
[3]
  glycan array binding signal (z-score): -0.204
[4]
  glycan array binding signal (z-score): -0.136
[5]
  glycan array binding signal (z-score): -0.164
[6]
  glycan array binding signal (z-score): -0.152
[7]
  glycan array binding signal (z-score): -0.1
[8]
  glycan array binding signal (z-score): -0.151
[9]
  glycan array binding signal (z-score): -0.154
[10]
  glycan array binding signal (z-score): -0.156
[11]
  glycan array binding signal (z-score): -0.206
[12]
  glycan array binding signal (z-score): -0.173
[13]
  glycan array binding signal (z-score): -0.126
[14]
  glycan array binding signal (z-score): -0.135
[15]
  glycan array binding signal (z-score): 0.029
[16]
  glycan array binding signal (z-score): -0.137
[17]
  glycan array binding signal (z-score): -0.205
[18]
  glycan array binding signal (z-score): -0.187
[19]
  glycan array binding signal (z-score): -0.167
[20]
  glycan array binding signal (z-score): -0.173
[21]
  glycan array binding signal (z-score): -0.077
[22]
  glycan array binding signal (z-score): 0.02
[23]
  glycan array binding signal (z-score): -0.21
[24]
  glycan array binding signal (z-score): -0.134
[25]
  glycan array binding signal (z-score): -0.178
[26]
  glycan array binding signal (z-score): -0.199
[27]
  glycan array binding signal (z-score): -0.202
[28]
  glycan array binding signal (z-score): -0.078
[29]
  glycan array binding signal (z-score): -0.089
[30]
  glycan array binding signal (z-score): -0.122
[31]
  glycan array binding signal (z-score): -0.178
Fuc(a1-3)GlcNAc
  glycan array binding signal (z-score): -0.106
[32]
  glycan array binding signal (z-score): 0.164
[33]
  glycan array binding signal (z-score): -0.162
[34]
  glycan array binding signal (z-score): -0.143
[35]
  glycan array binding signal (z-score): -0.206
[36]
  glycan array binding signal (z-score): -0.117
[37]
  glycan array binding signal (z-score): 0.239
[38]
  glycan array binding signal (z-score): -0.088
[39]
  glycan array binding signal (z-score): -0.165
[40]
  glycan array binding signal (z-score): -0.17
[41]
  glycan array binding signal (z-score): -0.126
[42]
  glycan array binding signal (z-score): -0.186
[43]
  glycan array binding signal (z-score): 0.215
[44]
  glycan array binding signal (z-score): -0.124
